Measured values published in patent US20250277783A1, “ENGINEERED CANNABINOID BIOMARKER(S), IN VITRO AND IN VIVO TESTING, AND RELATED APPLICATIONS” (Auxergen Inc., priority 2024, published 2025).

What was measured:
Type in all cases: cell-based
CB2 receptor [1] = target: T1, CB2 receptor (Homo sapiens, UniProt P34972); assay: Surface level of CB2 receptor labeled by AxCBM2 biomarker after CBD treatment
CB2 receptor [2] = target: T1, CB2 receptor; assay: Internal pool level of CB2 receptor labeled by AxCBM2 biomarker after CBD treatment; details: 2 μM CBD for 60 minutes vs control DMSO
MHC-1 = assay: Flow cytometry of MHC-1 recycling in human immune cell under CBD treatment; details: Jurkat cells, FIG. 9
From the text: FIG. 9 are examples of flow cytometry analysis of the level of surface, internalized, and recycled CB2 receptor using AxCBM2 biomarker and MHC-1 in human immune cell under cannabidiol (CBD) treatment.
FIG. 9 provides embodiments of the present invention's application of AxCBM2 biomarkers to detect suppresses the surface CB2 and MHC-1 receptor level (left), receptor recycling (right), and receptor accumulation in cytoplasm internally (middle).
Jurkat cells were fixed with 2% formaldehyde in PBS for 20 mins at room temperature. Incubate cells with Alexa647-conjugated AxCBM2 biomarkers (1 μg/ml) or 10 μ1/ml Alexa647-anti-MHC I (W6/32) antibody for 30 minutes. The mean fluorescent signal is measured for 20,000 events by FACSArray bioanalyzer (BD). FIG. 9 illustrates examples of use of the biomarker to find/utilize a secondary trafficking and pharmokokinetic pathway for the CB2 receptor (surface, internal, recycling). Because the CB2 receptor can go through a completely different pathway, it can affect how a cell differentiates. The kinetics of CB1 And CB2 are different, for example CB2 kinetics are faster. Because CBD inhibits immune response, embodiments of the present invention include tests that can determine the extent/level to which a particular cannabinoid-based drug can suppress the immune response (FIG. 9).

CB2 receptor [3] = target: T1, CB2 receptor; assay: Flow cytometry of CB2 receptor recycling with AxCBM2 biomarker in human immune cell under CBD treatment; parameters: Jurkat cells were fixed with 2% formaldehyde in PBS; endogenous in cells; host or cells: Jurkat; details: Jurkat cells, FIG. 9
CB2 receptor [4] = target: T1, CB2 receptor; assay: Co-incubation of CB2 inverse agonist/antagonist with CP-55940, surface biomarker-labeled CB receptor level; details: co-incubation with CP-55940, parallel shift; read-out: antagonist dissociation constant (Kb), CB2
CBl receptor = CBl receptor (Homo sapiens, UniProt P21554); assay: Co-incubation of CB1 inverse agonist/antagonist with CP-55940, surface biomarker-labeled CB receptor level
UniProt P21554, sequence (P21554 whole entry): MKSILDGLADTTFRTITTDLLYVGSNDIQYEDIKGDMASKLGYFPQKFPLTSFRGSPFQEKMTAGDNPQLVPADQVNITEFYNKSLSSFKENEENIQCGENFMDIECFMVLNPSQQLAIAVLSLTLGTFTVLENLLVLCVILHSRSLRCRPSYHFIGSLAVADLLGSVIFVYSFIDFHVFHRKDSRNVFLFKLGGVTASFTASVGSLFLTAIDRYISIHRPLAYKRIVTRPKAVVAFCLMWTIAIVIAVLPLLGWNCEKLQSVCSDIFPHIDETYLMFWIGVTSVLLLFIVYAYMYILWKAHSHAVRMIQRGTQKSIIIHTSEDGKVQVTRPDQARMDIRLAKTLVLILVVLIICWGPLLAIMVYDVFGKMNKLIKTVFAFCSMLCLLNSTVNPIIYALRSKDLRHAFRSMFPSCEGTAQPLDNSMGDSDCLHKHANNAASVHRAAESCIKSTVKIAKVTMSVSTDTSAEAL

T1 sequence (P34972 whole entry): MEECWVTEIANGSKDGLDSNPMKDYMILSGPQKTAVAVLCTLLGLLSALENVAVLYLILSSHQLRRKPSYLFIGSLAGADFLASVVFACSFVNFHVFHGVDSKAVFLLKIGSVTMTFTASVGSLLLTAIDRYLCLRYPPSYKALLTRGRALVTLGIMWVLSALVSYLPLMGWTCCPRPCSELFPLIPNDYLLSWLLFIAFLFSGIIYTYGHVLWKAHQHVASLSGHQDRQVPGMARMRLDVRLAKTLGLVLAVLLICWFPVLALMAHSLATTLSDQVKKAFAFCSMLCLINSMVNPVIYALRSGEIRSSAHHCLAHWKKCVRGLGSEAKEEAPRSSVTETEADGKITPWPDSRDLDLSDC

C=C(C)[C@@H]1CCC(C)=C[C@H]1c1c(O)cc(CCCCC)cc1O [CBD, cannabidiol]
surface level of CB2 receptor, % of the control (CB2 receptor [1]; 2 μM CBD for 60 minutes vs control DMSO): 18.3% | half-life (t1/2) of AxCBM2 biomarker-labeled CB2 receptor internalization (CB2 receptor [1]; time course of surface CB2 receptor level, CBD-treated cells): ~5.3 min | internal pool level of CB2 receptor (CB2 receptor [2]): highly accumulates in vacuole-like endosome | MHC-1 recycling (MHC-1): suppress | CB2 receptor recycling (CB2 receptor [3]): suppress

COc1ccc(C(=O)c2c(C)n(CCN3CCOCC3)c3cc(I)ccc23)cc1 [AM-630]
Kb (CB2 receptor [4]): 57.5 nM

Cc1c(C(=O)NN2CCOCC2)nn(-c2ccc(Cl)cc2Cl)c1-c1ccc(I)cc1 [AM-281]
change in IMAX of CP-55940 on co-incubation (CBl receptor; co-incubation with CP-55940): no change in IMAX | Kb (CBl receptor; co-incubation with CP-55940, surmountable antagonism, read-out: antagonist dissociation constant (Kb), CB1): 149 nM
